Measurements: a compilation of properties of binary mixtures (doi:10.1016/j.molliq.2019.111632)
Some of these densities may be calculated back from excess volumes.

Assay: xn = mol fraction of the nth substance listed
Conditions: 101 kPa

CCCC[n+]1ccn(C)c1.F[P-](F)(F)(F)(F)F + CC(C)=O
mass density [kg/m3]
Conditions	293.15 K	295.15 K	297.15 K	299.15 K	301.15 K	303.15 K
x1 = 0.0448	–	872.8	870.8	869	867	–
x1 = 0.0999	952	950	949	–	945	943
x1 = 0.166	1019	1017	1015	1013	1011	1010
x1 = 0.2	1059	1057	1055	1054	1052	1050
x1 = 0.284	1124	1122	1121	1119	1118	–
x1 = 0.377	–	1179	1177	1175	1174	1172
x1 = 0.49	1234	1233	1231	1229	1228	1226
x1 = 0.578	1268	1266	1265	1263	1262	1260
x1 = 0.673	1298	1297	1295	–	1292	1290
x1 = 0.745	1313.6	1311.9	–	1309	1307.3	1305.6
x1 = 0.803	1332.1	1330.4	–	1327.5	1325.9	–
x1 = 0.889	1350.5	1348.8	–	1345.9	1344.3	1342.6
x1 = 0.943	–	1359.3	1357.7	1356.4	1354.8	1353.1
